This list was built around the results that the source calls inconclusive (neither active nor inactive); the mix of calls is not that of the screen. No potency is given beside an inconclusive call; the fits are too rough. Calls of active or inactive are those of the source. Calls come from the whole dose curve; as a rule, active = well fitted cell-killing curve with a large enough effect; inconclusive = small, poorly fitted or top-dose-only effect; inactive = no such curve, though single readings can be large or run the other way.
How the values were obtained:
[1] = qHTS of pediatric cancer cell lines to identify multiple opportunities for drug repurposing: Primary screen for Rh30 cells (AID 1347107); settings: Rh30 rhabdomyosarcoma viability, CellTiter-Glo luminescence, 48 h; series mostly up to 46 µM; note: nearly all actives have a fitted effect of over 75% in size
Procedure, shortened: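 Cells (500-1,000/well) in growth media were settled 5 h at 37 degrees C, then given compounds for 48 h. Viability was read as CellTiter-Glo luminescence. Primary runs used MIPE at 11 points (0.78 nM-46 µM) and NPC at 8 points (0.59 nM-46 µM); follow-ups used 11 points.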

[2] = qHTS of pediatric cancer cell lines to identify multiple opportunities for drug repurposing: Primary screen for Rh41 cells (AID 1347108); settings: Rh41 rhabdomyosarcoma viability, CellTiter-Glo luminescence, 48 h; series mostly up to 46 µM; note: nearly all actives have a fitted effect of over 70% in size
Procedure, shortened: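 Luminescence from CellTiter-Glo served as readout of metabolically active cells after 48 h compound exposure. Titrations: MIPE 11-point, from 0.78 nM; NPC 8-point, from 0.59 nM (final). Concentration-response curves came straight from the primary screen.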
Potency is the fitted concentration of half-maximal effect; tags give direction and shape of the fitted curve.

O=C(O)CCC=CCC[C@@H]1[C@H](N2CCCCC2)[C@@H](O)C[C@@H]1OCc1ccc(-c2ccccc2)cc1
Potency [1]: inconclusive [cytotoxic, partial curve, poor fit] | Potency [2]: active: 18.7 µM

CCCCOc1ccc(C(=O)CCN2CCCCC2)cc1
Potency [1]: inactive | Potency [2]: inconclusive [cytotoxic, single point]

COCC(=O)O[C@]1(CCN(C)CCCc2nc3ccccc3[nH]2)CCc2cc(F)ccc2[C@@H]1C(C)C
Potency [1]: inconclusive [cytotoxic, single point] | Potency [2]: inconclusive [cytotoxic, single point]

CCN(CC)CCNc1ccc(CO)c2sc3ccccc3c(=O)c12
Potency [1]: inactive | Potency [2]: inconclusive [cytotoxic, single point]

COc1ccc(CCN2CCC(Nc3nc4ccccc4n3Cc3ccc(F)cc3)CC2)cc1
Potency [1]: inconclusive [cytotoxic, single point] | Potency [2]: inconclusive [cytotoxic, partial curve]

CN1CCc2c(n(Cc3ccc(C(=O)NO)cc3)c3ccccc23)C1
Potency [1]: inactive | Potency [2]: active: 11.8 µM

CCn1c(-c2nonc2N)nc2cnc(Oc3cccc(NC(=O)c4ccc(OCCN5CCOCC5)cc4)c3)cc21
Potency [1]: inconclusive [cytotoxic, partial curve] | Potency [2]: inconclusive [cytotoxic, partial curve]

Nc1ccc(C(=O)Nc2cccc(-c3nc(N4CCOCC4)c4oc5ncccc5c4n3)c2)cn1
Potency [1]: inconclusive [cytotoxic, partial curve] | Potency [2]: inconclusive [cytotoxic, partial curve]
